Source: publication PMC13456277, “Direct interaction between RSV polymerase L and active Rab11a mediates viral ribonucleoprotein transport to assembly sites” (PLOS Pathogens, 2026)
These are yes or no findings as the source states them, for the method shown. For part of these data: In cells and extracts the contact can be indirect. Some entries that bind do so weakly or less than the wild type.

Chains of the proteins cited; added tags and fusions are not shown. Lines headed by an entry give the natural chain unless they say otherwise; changes in a name come on top. A line that says so, or that is headed by a name, gives the form on record, which may keep a tag or linker. Residues count along the entry.
UniProt P28887: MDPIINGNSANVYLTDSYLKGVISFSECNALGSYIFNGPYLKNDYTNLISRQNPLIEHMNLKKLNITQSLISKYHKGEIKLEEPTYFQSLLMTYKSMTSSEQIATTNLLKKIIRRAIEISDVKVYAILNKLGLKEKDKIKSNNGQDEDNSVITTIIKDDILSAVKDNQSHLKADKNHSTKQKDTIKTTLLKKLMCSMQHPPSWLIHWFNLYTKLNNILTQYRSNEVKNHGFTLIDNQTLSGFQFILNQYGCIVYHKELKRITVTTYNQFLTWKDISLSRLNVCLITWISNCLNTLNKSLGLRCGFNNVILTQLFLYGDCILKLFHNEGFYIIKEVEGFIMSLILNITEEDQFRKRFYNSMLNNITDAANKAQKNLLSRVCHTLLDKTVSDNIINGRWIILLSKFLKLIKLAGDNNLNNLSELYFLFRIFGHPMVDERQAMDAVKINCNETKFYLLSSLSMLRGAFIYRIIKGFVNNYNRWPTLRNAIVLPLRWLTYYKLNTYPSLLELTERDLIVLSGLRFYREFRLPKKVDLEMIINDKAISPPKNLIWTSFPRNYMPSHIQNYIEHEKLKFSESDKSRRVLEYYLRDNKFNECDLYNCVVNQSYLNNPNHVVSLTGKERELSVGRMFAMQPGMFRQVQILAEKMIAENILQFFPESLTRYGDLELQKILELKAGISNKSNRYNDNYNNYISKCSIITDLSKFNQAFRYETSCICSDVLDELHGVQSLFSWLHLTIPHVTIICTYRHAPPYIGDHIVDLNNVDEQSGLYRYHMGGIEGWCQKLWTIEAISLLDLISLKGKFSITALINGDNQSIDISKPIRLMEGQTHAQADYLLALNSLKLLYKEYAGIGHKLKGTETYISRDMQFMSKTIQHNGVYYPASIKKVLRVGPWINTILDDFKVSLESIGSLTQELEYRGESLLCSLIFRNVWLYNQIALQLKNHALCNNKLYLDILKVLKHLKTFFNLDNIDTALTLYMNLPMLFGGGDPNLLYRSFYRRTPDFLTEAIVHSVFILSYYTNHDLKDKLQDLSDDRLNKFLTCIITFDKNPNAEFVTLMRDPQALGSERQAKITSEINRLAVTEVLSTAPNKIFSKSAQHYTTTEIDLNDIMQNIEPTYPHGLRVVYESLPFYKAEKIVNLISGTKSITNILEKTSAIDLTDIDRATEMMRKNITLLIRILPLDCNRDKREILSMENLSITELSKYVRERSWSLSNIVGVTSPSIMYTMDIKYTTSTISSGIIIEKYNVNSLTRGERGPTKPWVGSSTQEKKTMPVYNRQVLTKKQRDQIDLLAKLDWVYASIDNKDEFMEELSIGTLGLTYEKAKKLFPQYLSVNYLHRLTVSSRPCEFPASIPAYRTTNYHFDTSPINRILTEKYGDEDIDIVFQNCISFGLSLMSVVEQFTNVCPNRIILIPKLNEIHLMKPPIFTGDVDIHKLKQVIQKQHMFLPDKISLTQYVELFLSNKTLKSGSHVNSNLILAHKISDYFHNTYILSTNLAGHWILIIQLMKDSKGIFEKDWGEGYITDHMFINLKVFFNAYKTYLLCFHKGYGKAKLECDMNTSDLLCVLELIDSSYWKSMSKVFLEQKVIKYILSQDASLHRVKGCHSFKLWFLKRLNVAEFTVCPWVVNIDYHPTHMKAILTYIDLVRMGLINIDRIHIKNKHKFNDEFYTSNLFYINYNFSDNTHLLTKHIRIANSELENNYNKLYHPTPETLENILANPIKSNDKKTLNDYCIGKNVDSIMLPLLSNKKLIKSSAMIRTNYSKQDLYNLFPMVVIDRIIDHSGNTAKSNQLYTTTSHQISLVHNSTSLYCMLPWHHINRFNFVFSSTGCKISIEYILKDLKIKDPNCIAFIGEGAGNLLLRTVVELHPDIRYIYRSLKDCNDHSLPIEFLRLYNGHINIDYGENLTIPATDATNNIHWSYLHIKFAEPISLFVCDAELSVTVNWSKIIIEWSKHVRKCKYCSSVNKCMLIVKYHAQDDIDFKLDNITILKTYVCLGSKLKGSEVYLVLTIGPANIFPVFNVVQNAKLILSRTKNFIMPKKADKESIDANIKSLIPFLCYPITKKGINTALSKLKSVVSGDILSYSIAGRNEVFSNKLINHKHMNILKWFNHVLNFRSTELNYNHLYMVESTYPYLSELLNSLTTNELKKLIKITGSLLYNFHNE
L_(1-1755)-GFP: residues 1-1755 of P28887
GFP-L_(2040-2165): residues 2040-2165 of P28887
UniProt P62491: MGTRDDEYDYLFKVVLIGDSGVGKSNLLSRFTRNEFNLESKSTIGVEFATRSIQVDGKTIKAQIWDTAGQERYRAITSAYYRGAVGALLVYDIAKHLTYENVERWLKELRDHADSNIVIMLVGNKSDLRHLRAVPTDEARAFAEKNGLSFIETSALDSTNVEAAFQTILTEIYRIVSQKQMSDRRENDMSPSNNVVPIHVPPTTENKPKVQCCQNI
HA-Rab11aCAAAA (P62491, form named): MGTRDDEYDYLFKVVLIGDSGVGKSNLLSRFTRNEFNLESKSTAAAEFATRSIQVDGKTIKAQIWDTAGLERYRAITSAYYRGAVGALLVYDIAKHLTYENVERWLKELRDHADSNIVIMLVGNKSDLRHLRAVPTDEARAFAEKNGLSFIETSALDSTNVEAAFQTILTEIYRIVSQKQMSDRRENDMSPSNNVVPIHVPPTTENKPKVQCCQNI

Experiments:
[1] = target: RSV L-Twin-Strep-tag + P-his (human respiratory syncytial virus) (UniProt P28887); assay: BLI; Octet RED 384, 25°C; L-Twin-Strep-tag + P-his loaded on Ni-NTA sensors via the His tag of P; single concentration 2 µM GST-Rab11a variant, 600 s association, 300 s dissociation; 50 mM Tris-HCl pH 8.0, 300 mM NaCl, 0.02% Tween-20, BSA; no GTP for Rab11a WT; GTP not specified for CA and DN; both purified
[2] = target: RSV L-Twin-Strep-tag + P-his (human respiratory syncytial virus) (UniProt P28887); assay: BLI; as a5 (single concentration 2 µM) but with 1 mM GTP (GST-Rab11a WT); both purified
[3] = target: RSV L-Twin-Strep-tag + P-his (human respiratory syncytial virus) (UniProt P28887); assay: BLI; Octet RED 384, 25°C; L-Twin-Strep-tag + P-his loaded on Ni-NTA sensors; two-fold dilutions of GST-Rab11a (with 1 mM GTP) or GST-Rab11a CA from 50 nM to 3.2 µM; association 60 min to steady state, dissociation 5 min; apparent KD from steady-state responses, one-site model, double referenced; both purified
[4] = target: GFP-L_(2040-2165) (human respiratory syncytial virus) (UniProt P28887); assay: co-IP; HEK-293T co-transfected for 24 h; cells treated with 300 µM DSP cross-linker for 30 min before lysis (25 mM Tris-HCl pH 7.5, 200 mM NaCl, 1 mM EDTA, 0.5% NP40); GFP-Trap beads overnight at 4°C precipitate the GFP-tagged viral protein; HA-Rab11a detected by anti-HA Western blot
[5] = target: L-GFP full length (1-2165) co-expressed with P (L-P complex) (human respiratory syncytial virus) (UniProt P28887); assay: as above
[6] = target: L_(1-1755)-GFP (human respiratory syncytial virus) (UniProt P28887); assay: as above
[7] = target: GST-Rab11a(S25N) DN (human) (UniProt P62491); assay: pull-down; purified GST or GST-Rab11a variants on Glutathione Sepharose 4B beads incubated 3 h at 4°C with lysates of HEK-293T cells expressing GFP-tagged L constructs (with or without P); 50 mM Tris-HCl pH 7.5, 300 mM NaCl, 0.6% NP-40; no GTP in this experiment; anti-GFP Western blot; only the target …
[8] = target: GST-Rab11a(Q70L) CA (human) (UniProt P62491); assay: as above

“GST-Rab11a WT (from UniProt P62491 1-216)” was tested, and the binding [1] was “no binding (condition: in the absence of GTP (2 µM))” and the binding [2] was “binds”.
With “GST-Rab11a(Q70L) CA (from UniProt P62491 1-216)” the binding [3] was “binds” and the binding [1] was “binds”.
In the case of “GST-Rab11a(S25N) DN (from UniProt P62491 1-216)”, the binding [1] is reported as “no binding (tested: 2 µM)”.
For “HA-Rab11a(Q70L) CA (from UniProt P62491 1-216)”, the binding [4] was “no binding”, the binding [5] was “binds” and the binding [6] was “no binding”.
In the case of “HA-Rab11a(S25N) DN (from UniProt P62491 1-216)”, the binding [5] is reported as “no binding” and the binding [6] is reported as “no binding”.
In the case of “HA-Rab11aCAAAA (from UniProt P62491 1-216)”, the binding [5] is reported as “no binding”.
In the case of “L-GFP full length (1-2165) co-expressed with P (L-P complex) (from UniProt P28887 1-2165; P03421 1-241)”, the binding [7] is reported as “no binding” and the binding [8] is reported as “binds”.
In the case of “full-length L-GFP expressed without P (from UniProt P28887 1-2165)”, the binding [7] is reported as “no binding” and the binding [8] is reported as “binds”.
